# Data reported in the supplement of paper PMC8728848.
# Some of the results follow.
# B1: OrfX (Escherichia coli), Q9X4B6_ECOLX (protein)
# chain: MIKIARIAVTLGLLSSLGAQAYAAGLVVNDNDLRNDLAWLSDRGVIHLSLSTWPLSQEEIARALKKAKPSYSSEQVVLARINQRLSALKADFRVTGYTSTDQPGTPQGFGQTQPADNSLGLAFNNSGEWWDVHLQGNVEGGERISNGSRFNANGAYGAVKFWNQWLSFGQVPQWWGPGYEGSLIRGDAMRPMTGFLMQRAEQAAPETWWLRWVGPWQYQISASQMNQYTAVPHAKIIGGRFTFTPFQSLELGASRIMQWGGEGRPQSFSSFWDGFTGHDNTGTDNEPGNQLAGFDFKFKLEPTLGWPVSFYGQMVGEDESGYLPSANMFLGGVEGHHGWGKDTVNWYVEAHDTRTNMSRTNYSYTHHIYKDGYYQQGYPLGDAMGGDGQLIAGKVELITEDNQRWSTRLVYAKVNPENQSINKAFPHADTLKGLQLGWSGDVYQSVRLNTSLWYTNANNSDSDDVGASAGIEIPFSL
# Tests used:
# Experiment in all cases: glycan array binding signal (z-score within array); higher = stronger binding
# Details in all cases: glycan notation: IUPAC condensed, linker removed
# Gal3S4S(b1-4)GlcNAc = biological target: Gal3S4S(b1-4)GlcNAc
# In short: (§1)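 The Consortium for Functional Glycomics database supplied 3228 glycan arrays, of which those lacking an available protein sequence were dropped. The binding signal, a within-array Z-score, was averaged across arrays of the same protein sequence and across linkers. Negative scores can be read as non-binding.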
# Gal3S6S(b1-4)GlcNAc = biological target: Gal3S6S(b1-4)GlcNAc
# In short: as §1
# Gal3S6S(b1-4)GlcNAc6S = biological target: Gal3S6S(b1-4)GlcNAc6S
# In short: as §1
# Gal4S(b1-4)GlcNAc = biological target: Gal4S(b1-4)GlcNAc
# In short: as §1
# Gal4S6S(b1-4)GlcNAc = biological target: Gal4S6S(b1-4)GlcNAc
# In short: as §1
# Gal6P(b1-4)GlcNAc = biological target: Gal6P(b1-4)GlcNAc
# In short: as §1
# Gal6S(b1-3)GlcNAc = biological target: Gal6S(b1-3)GlcNAc
# In short: as §1
# Gal6S(b1-3)GlcNAc6S = biological target: Gal6S(b1-3)GlcNAc6S
# In short: as §1
# Gal6S(b1-4)Glc = biological target: Gal6S(b1-4)Glc
# In short: as §1
# Gal6S(b1-4)Glc6S = biological target: Gal6S(b1-4)Glc6S
# In short: as §1
# Gal6S(b1-4)GlcNAc = biological target: Gal6S(b1-4)GlcNAc
# In short: as §1
# Gal6S(b1-4)GlcNAc6S = biological target: Gal6S(b1-4)GlcNAc6S
# In short: as §1
# GalNAc(a1-3)Gal = biological target: GalNAc(a1-3)Gal
# In short: as §1
# GalNAc(a1-3)GalNAc = biological target: GalNAc(a1-3)GalNAc
# In short: as §1
# [1] = biological target: GalNAc(a1-3)GalNAc(b1-3)Gal(a1-4)Gal(b1-4)Glc
# In short: as §1
# [2] = biological target: GalNAc(a1-3)GalNAc(b1-3)Gal(a1-4)Gal(b1-4)GlcNAc
# In short: as §1
# GalNAc(b1-3)Gal = biological target: GalNAc(b1-3)Gal
# In short: as §1
# [3] = biological target: GalNAc(b1-3)Gal(a1-4)Gal(b1-4)GlcNAc
# In short: as §1
# [4] = biological target: GalNAc(b1-3)Gal(a1-4)Gal(b1-4)GlcNAc(b1-3)Gal(b1-4)Glc
# In short: as §1
# [5] = biological target: GalNAc(b1-3)Gal(a1-6)Gal(b1-4)Glc
# In short: as §1
# GalNAc(b1-3)GalNAc = biological target: GalNAc(b1-3)GalNAc
# In short: as §1
# GalNAc(b1-4)Gal(b1-4)Glc = biological target: GalNAc(b1-4)Gal(b1-4)Glc
# In short: as §1
# GalNAc(b1-4)GlcNAc = biological target: GalNAc(b1-4)GlcNAc
# In short: as §1
# [6] = biological target: GalNAc(b1-4)GlcNAc(b1-2)Man(a1-3)[GalNAc(b1-4)GlcNAc(b1-2)Man(a1-6)]Man(b1-4)GlcNAc(b1-4)GlcNAc
# In short: as §1
# GalNAc(b1-4)GlcNAc6S = biological target: GalNAc(b1-4)GlcNAc6S
# In short: as §1
# GalNAc(b1-6)GalNAc = biological target: GalNAc(b1-6)GalNAc
# In short: as §1
# GalNAc3S(b1-4)GlcNAc = biological target: GalNAc3S(b1-4)GlcNAc
# In short: as §1
# GalNAc3S(b1-4)GlcNAc3S = biological target: GalNAc3S(b1-4)GlcNAc3S
# In short: as §1
# GalNAc4S6S(b1-4)GlcNAc = biological target: GalNAc4S6S(b1-4)GlcNAc
# In short: as §1
# GalNAc6S(b1-4)GlcNAc = biological target: GalNAc6S(b1-4)GlcNAc
# In short: as §1
# Glc(a1-4)Glc = biological target: Glc(a1-4)Glc
# In short: as §1
# [7] = biological target: Glc(a1-4)Glc(a1-4)Glc(a1-4)Glc
# In short: as §1
# Glc(a1-6)Glc(a1-6)Glc = biological target: Glc(a1-6)Glc(a1-6)Glc
# In short: as §1
# [8] = biological target: Glc(a1-6)Glc(a1-6)Glc(a1-6)Glc
# In short: as §1
# Glc(b1-4)Glc = biological target: Glc(b1-4)Glc
# In short: as §1
# Glc(b1-6)Glc = biological target: Glc(b1-6)Glc
# In short: as §1
# GlcA(b1-3)Gal = biological target: GlcA(b1-3)Gal
# In short: as §1
binder,measurement,setting,value
B1,glycan array binding signal (z-score),Gal3S4S(b1-4)GlcNAc,0.796
same,glycan array binding signal (z-score),Gal3S6S(b1-4)GlcNAc,0.287
same,glycan array binding signal (z-score),Gal3S6S(b1-4)GlcNAc6S,-0.098
same,glycan array binding signal (z-score),Gal4S(b1-4)GlcNAc,-0.2
same,glycan array binding signal (z-score),Gal4S6S(b1-4)GlcNAc,0.039
same,glycan array binding signal (z-score),Gal6P(b1-4)GlcNAc,1.64
same,glycan array binding signal (z-score),Gal6S(b1-3)GlcNAc,-0.096
same,glycan array binding signal (z-score),Gal6S(b1-3)GlcNAc6S,1.84
same,glycan array binding signal (z-score),Gal6S(b1-4)Glc,0.055
same,glycan array binding signal (z-score),Gal6S(b1-4)Glc6S,0.49
same,glycan array binding signal (z-score),Gal6S(b1-4)GlcNAc,-0.003
same,glycan array binding signal (z-score),Gal6S(b1-4)GlcNAc6S,2.74
same,glycan array binding signal (z-score),GalNAc(a1-3)Gal,0.04
same,glycan array binding signal (z-score),GalNAc(a1-3)GalNAc,-0.159
same,glycan array binding signal (z-score),[1],-0.251
same,glycan array binding signal (z-score),[2],-0.374
same,glycan array binding signal (z-score),GalNAc(b1-3)Gal,-0.22
same,glycan array binding signal (z-score),[3],-0.088
same,glycan array binding signal (z-score),[4],-0.218
same,glycan array binding signal (z-score),[5],-0.264
same,glycan array binding signal (z-score),GalNAc(b1-3)GalNAc,-0.076
same,glycan array binding signal (z-score),GalNAc(b1-4)Gal(b1-4)Glc,0.667
same,glycan array binding signal (z-score),GalNAc(b1-4)GlcNAc,-0.182
same,glycan array binding signal (z-score),[6],-0.409
same,glycan array binding signal (z-score),GalNAc(b1-4)GlcNAc6S,-0.108
same,glycan array binding signal (z-score),GalNAc(b1-6)GalNAc,-0.231
same,glycan array binding signal (z-score),GalNAc3S(b1-4)GlcNAc,-0.23
same,glycan array binding signal (z-score),GalNAc3S(b1-4)GlcNAc3S,-0.14
same,glycan array binding signal (z-score),GalNAc4S6S(b1-4)GlcNAc,-0.183
same,glycan array binding signal (z-score),GalNAc6S(b1-4)GlcNAc,-0.318
same,glycan array binding signal (z-score),Glc(a1-4)Glc,0.014
same,glycan array binding signal (z-score),[7],0.149
same,glycan array binding signal (z-score),Glc(a1-6)Glc(a1-6)Glc,-0.074
same,glycan array binding signal (z-score),[8],0.415
same,glycan array binding signal (z-score),Glc(b1-4)Glc,-0.058
same,glycan array binding signal (z-score),Glc(b1-6)Glc,0.039
same,glycan array binding signal (z-score),GlcA(b1-3)Gal,0.363
